Results: article PMC4336329 (PLoS ONE, 2015)
About 2,200 (0.71%) of roughly 310,000 compounds showed an effect of 50% or more. Effects have a minus sign here. The list shows a part of the results.

These molecules were tested against human ether-à-go-go-related gene (hERG) potassium channel (human, UniProt Q12809) (assay: primary screen, population patch clamp on CHO cells stably expressing hERG).
human ether-à-go-go-related gene (hERG) potassium channel, sequence (Q12809 whole entry, looked up): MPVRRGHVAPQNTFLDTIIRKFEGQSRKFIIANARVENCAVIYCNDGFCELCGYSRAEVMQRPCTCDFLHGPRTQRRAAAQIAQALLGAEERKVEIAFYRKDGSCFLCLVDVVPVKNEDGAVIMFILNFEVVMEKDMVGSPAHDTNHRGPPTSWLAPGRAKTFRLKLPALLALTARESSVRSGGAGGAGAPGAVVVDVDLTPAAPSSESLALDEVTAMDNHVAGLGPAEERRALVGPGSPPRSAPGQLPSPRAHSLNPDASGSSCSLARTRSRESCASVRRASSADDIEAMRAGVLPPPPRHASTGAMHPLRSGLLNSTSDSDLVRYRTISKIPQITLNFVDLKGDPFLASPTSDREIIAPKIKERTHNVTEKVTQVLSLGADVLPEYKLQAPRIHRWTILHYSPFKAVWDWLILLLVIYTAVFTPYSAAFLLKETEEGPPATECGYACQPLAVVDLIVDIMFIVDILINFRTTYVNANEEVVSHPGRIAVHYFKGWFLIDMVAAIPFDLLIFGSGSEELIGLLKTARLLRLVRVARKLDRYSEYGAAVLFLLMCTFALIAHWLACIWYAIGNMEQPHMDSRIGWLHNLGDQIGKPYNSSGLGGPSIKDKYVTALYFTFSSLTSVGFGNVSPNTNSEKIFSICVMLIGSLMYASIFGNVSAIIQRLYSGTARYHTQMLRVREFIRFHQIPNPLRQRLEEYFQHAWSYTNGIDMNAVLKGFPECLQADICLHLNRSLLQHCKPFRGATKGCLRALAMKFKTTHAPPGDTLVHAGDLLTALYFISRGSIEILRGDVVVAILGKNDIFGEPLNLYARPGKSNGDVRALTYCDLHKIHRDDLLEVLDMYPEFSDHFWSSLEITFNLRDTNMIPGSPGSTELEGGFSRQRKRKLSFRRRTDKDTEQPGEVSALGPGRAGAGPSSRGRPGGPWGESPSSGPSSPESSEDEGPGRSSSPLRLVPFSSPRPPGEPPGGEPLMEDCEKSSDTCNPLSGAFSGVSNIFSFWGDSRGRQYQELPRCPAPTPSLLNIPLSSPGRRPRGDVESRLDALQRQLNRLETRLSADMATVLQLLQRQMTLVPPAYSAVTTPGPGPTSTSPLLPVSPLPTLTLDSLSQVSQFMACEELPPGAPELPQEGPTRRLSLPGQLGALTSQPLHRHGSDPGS

Row | Compound | hERG current change (%, negative = inhibition) at 1uM
1 | CC(C)Cc1nnc(NS(=O)(=O)Cc2ccccc2)s1 | 7.48%
2 | O=c1c(C/C=C/c2ccccc2)c(O)nc2n1CCCS2 | -0.739%
3 | O=C(COC(=O)c1cccs1)c1ccc2c(c1)OCCO2 | 1.98%
4 | CCN(CC)C(=O)c1cc2c(=O)n3ccccc3nc2s1 | -1.32%
5 | Cc1ccc(-c2csc(NCCc3nc4cc(Cl)c(Cl)cc4n3CCCO)n2)cc1 | 9.1%
6 | Nc1ccc(NC(=O)c2cccs2)c(Cl)c1 | 12.3%
7 | Cc1cc(NC(=O)CN2CCCCC2)n(-c2ccccc2)n1 | 12.1%
8 | CCOC(=O)c1cc(NC(=O)CSc2nnc(CN3CCOCC3)n2C)ccc1Cl | 0.655%
9 | CCO[C@H]1OC(C(=O)O)=C[C@@H](c2coc3ccccc3c2=O)[C@@H]1CCCO | 10.3%
10 | O=C(O)/C=C\C(=O)Nc1ccccc1C#Cc1ccc(Br)cc1 | 14.7%
11 | CC(=O)Nc1cccc(C(=O)N/N=C/c2cccnc2)c1 | 6.56%
12 | CCN(CC)c1cc(NCCO)c([N+](=O)[O-])c2nonc12 | 0.923%
13 | O=C(NC(Cc1ccccc1)C(=O)N1CCc2ccccc2C1)c1ccccc1 (stereo not shown) | 15.9%
14 | C=CCN1C(=O)C(Cc2ccc(OC)cc2)SC1=Nc1ccc(C(=O)O)cc1 (stereo not shown) | 10.1%
15 | Cc1ccc(Nc2ccc(N)cc2S(=O)(=O)O)cc1 | 16.2%
16 | COc1ccc(N(C(=O)Cn2nnc(-c3ccc(F)cc3)n2)C(C)C(=O)NC2CCCC2)cc1 (stereo not shown) | 10.9%
17 | Cc1ccc(CNC(=O)C2CCN(S(=O)(=O)c3cnc[nH]3)CC2)cc1 | 2.38%
18 | C#CCn1c(=NC(=O)c2cc(Cl)sc2Cl)sc2cc(S(N)(=O)=O)ccc21 | 8.95%
19 | O=S(=O)(Nc1nc2ccccc2nc1N1CCc2ccccc2C1)c1ccc(Br)cc1 | 4.98%
20 | Cc1ccc(S(=O)(=O)N(C)c2ccc(OCc3cccc(C)c3)cc2)cc1 | 16.4%
21 | CCOC(=O)c1c(C)[nH]c(C(=O)CN2C(=O)NC(CC)(c3ccccc3)C2=O)c1C (stereo not shown) | 12.7%
22 | CCCn1c2c(c(O)c(C(=O)Nc3ccc(OC)cc3)c1=O)CCCC2 | 3.2%

Row | Compound | hERG current change (%, negative = inhibition) at 1uM
23 | Nc1c(NCc2ccccc2)c(=O)c1=O | 10%
24 | CC(C)OC(=O)CSc1nnc(CNc2ccc(Cl)cc2)n1C | 9.83%
25 | CCCSc1nc2c(cnn2-c2ccc(C)c(C)c2)c(=O)[nH]1 | 14.8%
26 | O=C(COC(=O)Cc1ccc(Cl)cc1)Nc1ccc2[nH]c(=O)[nH]c2c1 | 9.12%
27 | COc1cc(CN2CCN(C(=O)CC(C)C)CC2)cc(OC)c1O.O=C(O)C(=O)O | 4.82%
28 | O=C(CSc1nncs1)Nc1nnc(-c2ccccc2)o1 | 8.11%
29 | Cc1ccc(CN(C)C(=O)CSc2nnc3n2CCCCC3)c(C)c1 | 10.1%
30 | CCOc1ccc(N/C=C\C(=O)c2ccc3c(c2)OCO3)cc1 | 15.8%
31 | Cc1ccc(-c2ccc(C(=O)NCCCNC(=O)c3cnccn3)o2)cc1Cl | 18.8%
32 | O=C(Cc1c[nH]c2ccccc12)Nc1nnc(C2CC2)s1 | 2.12%
33 | Cc1ccc(C)c2[nH]c(=O)c(CN(Cc3nnnn3C3CCCCC3)CC3CCCO3)cc12 (stereo not shown) | 5.73%
34 | COc1ccc(/C=C/C(=O)NC(=S)N2C[C@H]3C[C@H](C2)c2cccc(=O)n2C3)cc1OC | 6.36%
35 | CCCN(CCC)CCCNC(=O)C1c2cc(OC)c(OC)cc2C(=O)N(C)C1c1cccs1 (stereo not shown) | 14.8%
36 | O=C(NC(NNc1ccc([N+](=O)[O-])cc1)(C(F)(F)F)C(F)(F)F)c1ccc(Cl)cc1 | 5.38%
37 | Nc1c(N(CCC2=CCCCC2)C(=O)Cc2ccc(F)cc2)c(=O)[nH]c(=O)n1Cc1ccccc1 | -3.84%
38 | Cc1cc2[nH]cnc2c([N+](=O)[O-])c1C | -10.1%
39 | CCC(=O)N1c2ccc(S(=O)(=O)N3CCOCC3)cc2CC1C (stereo not shown) | 13.5%
40 | CN(Cc1ccccc1)C(=O)COC(=O)C1CCN(S(=O)(=O)c2ccc3c(c2)OCCO3)CC1 | 8.54%
41 | CCOC(=O)C(NC(=O)C1C(C)N1S(=O)(=O)c1ccc(C)cc1)C(=O)OCC (stereo not shown) | -4.77%
42 | O=C(O)c1ccc(N=NN2CCCCCC2)cc1 | 18.4%
43 | COc1ccc(CNS(=O)(=O)CCNC(=O)c2cccc(OC)c2)cc1 | -39.1%
44 | CC(=O)NC(Cc1ccc(F)cc1)C(=O)O (stereo not shown) | -8.68%

Row | Compound | hERG current change (%, negative = inhibition) at 1uM
45 | CC(C)CNC(=O)CN1C(=O)NC2(CCc3ccccc32)C1=O (stereo not shown) | 11.6%
46 | O=C(COC(=O)c1ccc(O)cc1)c1ccc(S(=O)(=O)N2CCCCC2)cc1 | 10.5%
47 | CCOC(=O)C1=C(COC(=O)CSc2ccc(C)cc2)NC(=O)NC1C (stereo not shown) | 1.96%
48 | CCOC(=O)c1c(C)[nH]c(C(=O)NCc2ccccn2)c1C | 6.33%
49 | C=CCNC(=O)C1CCN(c2ccc(S(=O)(=O)N3CCOCC3)cc2Cl)CC1 | 9.31%
50 | Cc1ccc(S(=O)(=O)N(CC(=O)NCc2ccco2)c2ccccc2C)cc1 | 3.62%
51 | COc1ccc(-n2cc(CN3CCCC3)c(-c3cccc(F)c3)n2)cc1 | -9.53%
52 | CC(C)c1ccc(C2CC(=O)N3CN(Cc4ccco4)CSC3=C2C#N)cc1 (stereo not shown) | 12.2%
53 | O=C(O)c1ccc(CN2CCOCC2)o1 | 10.8%
54 | Cc1ccc(-n2nc(C)c3c(C)c(CCC(=O)Nc4ccc(CN5CCCC5)cc4)c(C)nc32)cc1 | 5.31%
55 | Cc1ccc2cc(CNCCc3ccccc3C)c(=O)[nH]c2c1 | -42.9%
56 | CN(/C=C/c1c([N+](=O)[O-])c(=O)n(C)c(=O)n1C)c1ccccc1 | 0.465%
57 | CN1CCc2c(sc(NC(=O)c3ccc4ccccc4c3)c2C(N)=O)C1.Cl | 13.8%
58 | O=C(Nc1ccccc1N1CCOCC1)C1CCCCN1S(=O)(=O)c1ccccc1 (stereo not shown) | 2.67%
59 | CCCNC(=O)Nc1cc(S(=O)(=O)CC)ccc1O | 7.34%
60 | c1ccc(-c2noc(CN3CCOCC3)n2)cc1 | 21.6%
61 | CN(CC(=O)Nc1ccc(F)cc1)C(=O)CSc1ncccn1 | 14.2%
62 | COC(=O)COc1ccc(/C=N/NC(=O)c2ccc(N(Cc3ccccc3)S(C)(=O)=O)cc2)cc1 | 2.93%
63 | CCOc1ccc(N2C(=O)CC(C(C)c3ccccc3)C2=O)cc1 (stereo not shown) | -4.13%
64 | Nc1ccc(Oc2ccccc2F)nc1 | 14.9%
65 | CC(C)(CO)NCc1cc(Br)ccc1OCc1ccccc1.Cl | 0.0619%
66 | O=C(CN1C(=O)NC2(CCCc3ccccc32)C1=O)N1CCN(c2cccc(C(F)(F)F)c2)CC1 (stereo not shown) | 2.72%

Row | Compound | hERG current change (%, negative = inhibition) at 1uM
67 | Cc1nnc(SCC(=O)Nc2cccc(C(F)(F)F)c2)n1Cc1ccco1 | -2.42%
68 | COc1ccc(S(=O)(=O)N2CN3CCN(C3)C2)cc1OC | 6.62%
69 | CS(=O)(=O)c1nc(S(=O)(=O)c2ccc(Cl)cc2)c(NCCCn2ccnc2)s1 | 15%
70 | CCC1=C([N+](=O)[O-])C(c2ccc3c(c2)OCO3)NC(=O)N1 (stereo not shown) | 14.7%
71 | CC(=N\Nc1ccc(Cl)cc1)/C(=N/O)C(=O)Nc1ccccc1 | 9.45%
72 | Cc1ccccc1COc1ccc2oc(C)c(C(=O)O)c2c1 | 14.7%
73 | CSc1ccccc1NC(=O)Cn1c(-c2cscn2)nc2ccccc21 | 6.15%
74 | O=C(Nc1cccc(S(=O)(=O)N2CCCCCC2)c1)c1ccc2ccccc2n1 | 5.96%
75 | COc1ccc(C)cc1NC(=O)CN(c1ccccc1F)S(C)(=O)=O | 8.8%
76 | O=S(=O)(c1ccc(F)c2ccccc12)N1CCCCC1 | 7.14%
77 | CCN1CCN(S(=O)(=O)c2ccc(Oc3ccccc3OC)cc2)CC1 | -2.12%
78 | CCSCCOC(=O)C1=C(C)NC(=O)NC1c1ccc2c(c1)OCO2 (stereo not shown) | -2.24%
79 | Cc1cc(C)n(CC(=O)N2CCCC(C(=O)c3cccc(OC(C)C)c3)C2)n1 (stereo not shown) | -3.09%
80 | Cc1cccc(N(Cc2ccccc2F)S(C)(=O)=O)c1 | 7.42%
81 | COc1ccc(-n2c(=O)[nH]cc(C(=O)Nc3ccccc3)c2=O)cc1 | 8.48%
82 | Cc1nn(-c2ccccc2)c(C)c1/C=N/O | 11.4%
83 | COc1cccc(NC(=O)CN(C)CC(=O)Nc2ccc(C)cc2Cl)c1 | 12.8%
84 | Cc1ccc(CSCCNC(=O)CN(c2cccc([N+](=O)[O-])c2)S(C)(=O)=O)cc1 | -10.3%
85 | COC(=O)c1ccc(C2/C(=C(/O)c3ccc(OC)cc3)C(=O)C(=O)N2c2cc(C)on2)cc1 (stereo not shown) | 6.75%
86 | CC(=O)Nc1ccc(NS(=O)(=O)c2ccc(C)cc2)c([N+](=O)[O-])c1 | -20.5%
87 | Cc1ccc(S(=O)(=O)N(C)c2ccc(OCC(=O)N3CCCCC3)cc2)cc1 | 7.49%
88 | CCNCCC(CCC(C)C)c1ccc2c(c1)OCO2 (stereo not shown) | -64.3%
